From PubChem BioAssay (NCI)
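Briefly, cells in 96-well plates were exposed to five compound concentrations for 48 h, and endpoints were estimated by linear interpolation. At the GI50, growth is halved. TGI denotes the concentration required for complete inhibition of growth.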

Tested on: NCI-H322M lung
Assay: DTP human tumour cell line panel, 48 h

Q: Which GI50 does the source give for COc1ccc(NC(=O)Cn2c(/C=C/c3ccc(N(C)C)cc3)nc3ccccc3c2=O)cc1 here?
A: 18.1 µM

Q: What about the TGI of the same compound?
A: > 100 µM

Q: Which results are given for COc1c2c(cc3c1C(CCc1ccccc1)N(C)CC3)OCO2 (stereo unspecified)?
A: GI50: 10.9 µM; TGI: > 100 µM

Q: Which results are given for Cc1ccc2c(c1)/C(=C/C(=O)c1cc3ccccc3oc1=O)C(=O)N2?
A: GI50: > 100 µM; TGI: > 100 µM
